In patent publication US5760092A, “Allocolchinones and uses thereof” (Brandeis University, priority 1996, dated 1998):

Key:
SK-MEL-28 melanoma cells = assay: cells; details: Homo sapiens
UACC-62 melanoma cells [1] = test system: UACC-62 melanoma cells
[2] = test system: HCT-116 colon cancer cells; assay: cells; details: Homo sapiens
[3] = test system: T-47D breast cancer cells; assay: cells; details: Homo sapiens, T47D
[4] = test system: SW-620 colon cancer cells
UACC-257 melanoma cells = assay: cells; details: Homo sapiens
[5] = test system: IGR-OV1 ovarian cancer cells
RPMI-8226 leukemia cells = assay: cells; details: Homo sapiens
[6] = test system: NCI-H23 non-small cell lung cancer cells; assay: cells; details: Homo sapiens
CCRF-CEM leukemia cells = assay: cells; details: Homo sapiens
[7] = test system: HCC-2998 colon cancer cells
UACC-62 melanoma cells [8] = assay: cells; details: Homo sapiens
[9] = test system: HL-60 (TB) leukemia cells
[10] = test system: MDA-MB-435 breast cancer cells
[11] = test system: NCI-H460 non-small cell lung cancer cells; assay: cells; details: Homo sapiens
[12] = read-out: Percent Growth, log10 conc -4.0
[13] = read-out: Percent Growth, log10 conc -5.0
[14] = read-out: Percent Growth, log10 conc -6.0
[15] = read-out: Percent Growth, log10 conc -7.0
[16] = read-out: Percent Growth, log10 conc -8.0

COc1cc2c(c(OC)c1OC)-c1ccc(OC)c(=O)cc1[C@@H](NC(C)=O)CC2 [Colchicine, reference compound]
activity at 100 µM (SK-MEL-28 melanoma cells; SK-MEL-28, read-out: Percent Growth, log10 conc -4.0): 13% | activity at 10 µM (SK-MEL-28 melanoma cells; SK-MEL-28, read-out: Percent Growth, log10 conc -5.0): 49% | activity at 1 µM (SK-MEL-28 melanoma cells; SK-MEL-28, read-out: Percent Growth, log10 conc -6.0): 54% | activity at 0.1 µM (SK-MEL-28 melanoma cells; SK-MEL-28, read-out: Percent Growth, log10 conc -7.0): 57% | activity at 0.01 µM (SK-MEL-28 melanoma cells; SK-MEL-28, read-out: Percent Growth, log10 conc -8.0): 69% | TGI (UACC-62 melanoma cells [1]): 16.6 µM | GI50 ([2]; HCT-116): 0.0327 µM | activity at 10 µM ([2]; HCT-116, read-out: Percent Growth, log10 conc -5.0): 33% | activity at 1 µM ([2]; HCT-116, read-out: Percent Growth, log10 conc -6.0): 32% | activity at 0.1 µM ([2]; HCT-116, read-out: Percent Growth, log10 conc -7.0): 26% | activity at 0.01 µM ([2]; HCT-116, read-out: Percent Growth, log10 conc -8.0): 76% | GI50 [3]: 61.4 µM | activity at 100 µM [3, 12]: 42% | activity at 10 µM [3, 13]: 82% | activity at 1 µM [3, 14]: 79% | activity at 0.1 µM [3, 15]: 89% | activity at 0.01 µM [3, 16]: 81% | TGI (SR leukemia cells): > 100 µM | TGI [4]: 22.5 µM | TGI (SN12C renal cancer cells): 61.9 µM | GI50 (UACC-257 melanoma cells; UACC-257): > 100 µM | activity at 100 µM (UACC-257 melanoma cells; UACC-257, read-out: Percent Growth, log10 conc -4.0): 65% | activity at 10 µM (UACC-257 melanoma cells; UACC-257, read-out: Percent Growth, log10 conc -5.0): 61% | activity at 1 µM (UACC-257 melanoma cells; UACC-257, read-out: Percent Growth, log10 conc -6.0): 81% | activity at 0.1 µM (UACC-257 melanoma cells; UACC-257, read-out: Percent Growth, log10 conc -7.0): 76% | activity at 0.01 µM (UACC-257 melanoma cells; UACC-257, read-out: Percent Growth, log10 conc -8.0): 79% | TGI (MALME-3M melanoma cells): 38.6 µM | TGI [5]: > 100 µM | GI50 (RPMI-8226 leukemia cells; RPMI-8226): < 0.01 µM | activity at 100 µM (RPMI-8226 leukemia cells; RPMI-8226, read-out: Percent Growth, log10 conc -4.0): 16% | activity at 10 µM (RPMI-8226 leukemia cells; RPMI-8226, read-out: Percent Growth, log10 conc -5.0): 10% | activity at 1 µM (RPMI-8226 leukemia cells; RPMI-8226, read-out: Percent Growth, log10 conc -6.0): 10% | activity at 0.1 µM (RPMI-8226 leukemia cells; RPMI-8226, read-out: Percent Growth, log10 conc -7.0): 12% | activity at 0.01 µM (RPMI-8226 leukemia cells; RPMI-8226, read-out: Percent Growth, log10 conc -8.0): 39% | activity at 100 µM ([6]; NCI-H23, read-out: Percent Growth, log10 conc -4.0): 13% | activity at 10 µM ([6]; NCI-H23, read-out: Percent Growth, log10 conc -5.0): 2% | activity at 1 µM ([6]; NCI-H23, read-out: Percent Growth, log10 conc -6.0): 4% | activity at 0.1 µM ([6]; NCI-H23, read-out: Percent Growth, log10 conc -7.0): 3% | activity at 0.01 µM ([6]; NCI-H23, read-out: Percent Growth, log10 conc -8.0): 90% | GI50 (CCRF-CEM leukemia cells): 0.015 µM | activity at 100 µM (CCRF-CEM leukemia cells; [12]): 4% | activity at 10 µM (CCRF-CEM leukemia cells; [13]): 3% | activity at 1 µM (CCRF-CEM leukemia cells; [14]): 2% | activity at 0.1 µM (CCRF-CEM leukemia cells; [15]): 7% | activity at 0.01 µM (CCRF-CEM leukemia cells; [16]): 59% | TGI [7]: 22.4 µM | activity at 100 µM (UACC-62 melanoma cells [8]; UACC-62, read-out: Percent Growth, log10 conc -4.0): -70% | activity at 10 µM (UACC-62 melanoma cells [8]; UACC-62, read-out: Percent Growth, log10 conc -5.0): 20% | activity at 1 µM (UACC-62 melanoma cells [8]; UACC-62, read-out: Percent Growth, log10 conc -6.0): 19% | activity at 0.1 µM (UACC-62 melanoma cells [8]; UACC-62, read-out: Percent Growth, log10 conc -7.0): 21% | activity at 0.01 µM (UACC-62 melanoma cells [8]; UACC-62, read-out: Percent Growth, log10 conc -8.0): 64% | TGI (UO-31 renal cancer cells): > 100 µM | TGI [9]: 0.0822 µM | TGI [10]: 0.0315 µM | GI50 ([11]; NCI-H460): 0.0223 µM | activity at 100 µM ([11]; NCI-H460, read-out: Percent Growth, log10 conc -4.0): -15% | activity at 10 µM ([11]; NCI-H460, read-out: Percent Growth, log10 conc -5.0): -42% | activity at 1 µM ([11]; NCI-H460, read-out: Percent Growth, log10 conc -6.0): -48% | activity at 0.1 µM ([11]; NCI-H460, read-out: Percent Growth, log10 conc -7.0): -31% | activity at 0.01 µM ([11]; NCI-H460, read-out: Percent Growth, log10 conc -8.0): 93%
